Laboratory results reported in the supplement of paper PMC8728848.
The list shows a part of the results.

How the values were obtained:
Experiment in all cases: glycan array binding signal (z-score within array); higher = stronger binding
Conditions in all cases: glycan notation: IUPAC condensed, linker removed
[1] = biological target: Neu5Ac(a2-3)Gal(b1-4)GlcNAc(b1-3)GalNAc
How it was run: (§1)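 The Consortium for Functional Glycomics database supplied 3228 glycan arrays, of which those lacking an available protein sequence were dropped. The binding signal, a within-array Z-score, was averaged across arrays of the same protein sequence and across linkers. Negative scores can be read as non-binding.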

[2] = biological target: Neu5Ac(a2-3)Gal(b1-4)GlcNAc(b1-3)[Neu5Ac(a2-3)Gal(b1-4)GlcNAc(b1-6)]GalNAc
How it was run: as §1

[3] = biological target: Neu5Ac(a2-3)Gal(b1-4)GlcNAc(b1-6)GalNAc
How it was run: as §1

[4] = biological target: Neu5Ac(a2-3)Gal(b1-4)GlcNAc(b1-6)[Gal(b1-3)]GalNAc
How it was run: as §1

[5] = biological target: Neu5Ac(a2-3)Gal(b1-4)GlcNAc(b1-6)[Neu5Ac(a2-3)Gal(b1-3)]GalNAc
How it was run: as §1

[6] = biological target: Neu5Ac(a2-3)Gal(b1-4)GlcNAc6S
How it was run: as §1

[7] = biological target: Neu5Ac(a2-3)Gal(b1-4)[Fuc(a1-3)]GlcNAc
How it was run: as §1

[8] = biological target: Neu5Ac(a2-3)Gal(b1-4)[Fuc(a1-3)]GlcNAc(b1-2)Man
How it was run: as §1

[9] = biological target: Neu5Ac(a2-3)Gal(b1-4)[Fuc(a1-3)]GlcNAc(b1-3)Gal
How it was run: as §1

[10] = biological target: Neu5Ac(a2-3)Gal(b1-4)[Fuc(a1-3)]GlcNAc(b1-3)Gal(b1-4)GlcNAc
How it was run: as §1

[11] = biological target: Neu5Ac(a2-3)Gal(b1-4)[Fuc(a1-3)]GlcNAc(b1-3)Gal(b1-4)[Fuc(a1-3)]GlcNAc(b1-3)Gal(b1-4)[Fuc(a1-3)]GlcNAc
How it was run: as §1

[12] = biological target: Neu5Ac(a2-3)Gal(b1-4)[Fuc(a1-3)]GlcNAc(b1-3)GalNAc
How it was run: as §1

[13] = biological target: Neu5Ac(a2-3)Gal(b1-4)[Fuc(a1-3)]GlcNAc(b1-6)[Gal(b1-3)]GalNAc
How it was run: as §1

[14] = biological target: Neu5Ac(a2-3)Gal(b1-4)[Fuc(a1-3)]GlcNAc(b1-6)[Neu5Ac(a2-3)Gal(b1-3)]GalNAc
How it was run: as §1

[15] = biological target: Neu5Ac(a2-3)Gal(b1-4)[Fuc(a1-3)]GlcNAc6S
How it was run: as §1

[16] = biological target: Neu5Ac(a2-3)Gal6S(b1-4)GlcNAc
How it was run: as §1

[17] = biological target: Neu5Ac(a2-3)Gal6S(b1-4)[Fuc(a1-3)]GlcNAc
How it was run: as §1

Neu5Ac(a2-3)GalNAc = biological target: Neu5Ac(a2-3)GalNAc
How it was run: as §1

[18] = biological target: Neu5Ac(a2-3)GalNAc(b1-4)GlcNAc
How it was run: as §1

[19] = biological target: Neu5Ac(a2-3)[GalNAc(b1-4)]Gal(b1-4)Glc
How it was run: as §1

[20] = biological target: Neu5Ac(a2-3)[GalNAc(b1-4)]Gal(b1-4)GlcNAc
How it was run: as §1

[21] = biological target: Neu5Ac(a2-3)[GalNAc(b1-4)]Gal(b1-4)GlcNAc(b1-3)GalNAc
How it was run: as §1

[22] = biological target: Neu5Ac(a2-3)[Neu5Ac(a2-6)]GalNAc
How it was run: as §1

Neu5Ac(a2-6)Gal = biological target: Neu5Ac(a2-6)Gal
How it was run: as §1

[23] = biological target: Neu5Ac(a2-6)Gal(b1-3)GlcNAc(b1-3)[Gal(b1-4)GlcNAc(b1-6)]Gal(b1-4)Glc
How it was run: as §1

Neu5Ac(a2-6)Gal(b1-4)Glc = biological target: Neu5Ac(a2-6)Gal(b1-4)Glc
How it was run: as §1

[24] = biological target: Neu5Ac(a2-6)Gal(b1-4)GlcNAc
How it was run: as §1

[25] = biological target: Neu5Ac(a2-6)Gal(b1-4)GlcNAc(b1-2)Man
How it was run: as §1

[26] = biological target: Neu5Ac(a2-6)Gal(b1-4)GlcNAc(b1-2)Man(a1-3)Man(b1-4)GlcNAc(b1-4)GlcNAc
How it was run: as §1

[27] = biological target: Neu5Ac(a2-6)Gal(b1-4)GlcNAc(b1-2)Man(a1-3)[Gal(b1-4)GlcNAc(b1-2)Man(a1-6)]Man(b1-4)GlcNAc(b1-4)GlcNAc
How it was run: as §1

[28] = biological target: Neu5Ac(a2-6)Gal(b1-4)GlcNAc(b1-2)Man(a1-3)[GlcNAc(b1-2)Man(a1-6)]Man(b1-4)GlcNAc(b1-4)GlcNAc
How it was run: as §1

B1: DrGal3 (Danio rerio) (protein)
chain: MDLSDALDAPPQQNNQQAGGPVWPGQPANPVWPGQPANPTWPGQPNQPAWPGQPNQQWPGQPGQPTAPGWPGPAPQTGPYGAPGQAPQVLTVPLDFPLQNGAYNKMLITINGEVKPNAKQFTVNLRRGNDIAFHINPRFSEGGKPVIVRNSMIGNNWGREERELPSFPFVPGKPFEMKILITDTEYKVAVNKSHLLEFKHRVFELNQITGLSIYNDVTLSTVNVETLQ
B1 was tested, and the “glycan array binding signal (z-score)” value [1] was -0.211, the “glycan array binding signal (z-score)” value [2] was -0.208 and the “glycan array binding signal (z-score)” value [3] was -0.277. For the same binder, the “glycan array binding signal (z-score)” value [4] was 0.15, the “glycan array binding signal (z-score)” value [5] was -0.266 and the “glycan array binding signal (z-score)” value [6] was -0.189. The “glycan array binding signal (z-score)” value [7] was -0.25, the “glycan array binding signal (z-score)” value [8] was -0.26 and the “glycan array binding signal (z-score)” value [9] was -0.222. For the same binder, the “glycan array binding signal (z-score)” value [10] was -0.022, the “glycan array binding signal (z-score)” value [11] was -0.191 and the “glycan array binding signal (z-score)” value [12] was -0.163. For the same binder, the “glycan array binding signal (z-score)” value [13] was -0.188, the “glycan array binding signal (z-score)” value [14] was -0.184 and the “glycan array binding signal (z-score)” value [15] was -0.175. The “glycan array binding signal (z-score)” value [16] was -0.163, the “glycan array binding signal (z-score)” value [17] was -0.271 and the “glycan array binding signal (z-score)” value (Neu5Ac(a2-3)GalNAc) was -0.25. The “glycan array binding signal (z-score)” value [18] was -0.274, the “glycan array binding signal (z-score)” value [19] was -0.285 and the “glycan array binding signal (z-score)” value [20] was -0.268. The “glycan array binding signal (z-score)” value [21] was -0.185, the “glycan array binding signal (z-score)” value [22] was -0.275 and the “glycan array binding signal (z-score)” value (Neu5Ac(a2-6)Gal) was -0.272. The “glycan array binding signal (z-score)” value [23] was -0.258, the “glycan array binding signal (z-score)” value (Neu5Ac(a2-6)Gal(b1-4)Glc) was -0.24 and the “glycan array binding signal (z-score)” value [24] was -0.257. The “glycan array binding signal (z-score)” value [25] was -0.287, the “glycan array binding signal (z-score)” value [26] was -0.265 and the “glycan array binding signal (z-score)” value [27] was -0.222. For the same binder, the “glycan array binding signal (z-score)” value [28] was -0.025.
